The other results are listed elsewhere or left out. These are further read-outs of the screen, such as a control signal, another cell line or another target. No call is given for them.
test: cell-free HIV fusion peptide-binding blockers – biochemical, uHTS, fluorescence dequenching, primary screen (AID 1986); details: 30 min, measured here: repeat confirmation average inhibition, at 18.6 µM, stronger effect = higher value

| SMILES | inhibition [%] |
| --- | --- |
| O=C(Nc1ccc(Br)cc1C(=O)O)c1ccc2c(c1)C(=O)N(Cc1ccccc1)C2=O | 76.2 |
| O=C(O)CCn1cc(/C=C/C(=O)c2ccc(Cl)cc2)c(-c2ccc(Br)cc2)n1 | 53.2 |
| COc1ccc(-c2cc(-c3ccc(Cl)cc3)c(C#N)c(SCC(=O)O)n2)cc1 | 73.1 |
| Cc1ccccc1N=C1NC(=O)/C(=C/c2cccn2-c2cccc(C(=O)O)c2)S1 | 63.5 |
| CCc1ccc(/C=C2/SC(=S)N(CCCC(=O)Nc3ccccc3C(=O)O)C2=O)cc1 | 59.4 |
| O=C(OCC1OC(n2ncc(=O)[nH]c2=O)C(OC(=O)c2ccccc2)C1OC(=O)c1ccccc1)c1ccccc1 (configuration not stated) | 54.3 |
| CCOC(=O)c1c(N2C(=O)Nc3cc(Cl)c(Cl)cc3N2O)sc2c1CCCCC2 | 56.6 |
| CCOc1cc(/C=N/Nc2cccc(C(=O)O)c2)ccc1OC(=O)c1ccccc1 | 54.7 |
| O=C(Nc1cc(S(=O)(=O)N2CCCCC2)ccc1Cl)c1ccccc1NS(=O)(=O)c1ccc(F)cc1 | 66.5 |
| CCOC(=O)C1=C(C)N=c2s/c(=C\c3ccc(OCC(=O)O)cc3)c(=O)n2C1c1ccc(OC(C)C)cc1 (configuration not stated) | 59.8 |
| O=C(O)c1[nH]c2ccccc2c1C(c1cccc(O)c1)c1c(C(=O)O)[nH]c2ccccc12 | 57.4 |
| O=C(CCCN1C(=O)/C(=C/c2cccs2)SC1=S)Nc1ccc(O)c(C(=O)O)c1 | 51.7 |
| O=C(CCN1C(=O)/C(=C/c2ccccc2Cl)SC1=S)Nc1ccccc1C(=O)O | 51.4 |
| O=S(=O)(Nc1nc2ccccc2nc1Nc1cccc(S(=O)(=O)N2CCCCC2)c1)c1ccccc1 | 94 |
| COc1cc(/C=C(\C#N)c2nc3ccc(C)cc3[nH]2)cc([N+](=O)[O-])c1O | 61.6 |
| COc1ccc(-c2nn(-c3ccccc3)cc2/C=C2/SC(=S)N(CCCC(=O)O)C2=O)c(C)c1 | 54.9 |
| O=C(O)c1ccccc1NS(=O)(=O)c1ccc(NNC(=S)Nc2ccc(OC(F)F)cc2)c([N+](=O)[O-])c1 | 83.8 |
| NS(=O)(=O)c1cc(C(=O)NC2CCSc3ccccc32)ccc1Cl (configuration not stated) | 79.4 |
| N#Cc1c(-c2ccccc2)nc(SCc2cccc(C(F)(F)F)c2)[nH]c1=O | 76.1 |
| Brc1ccc(N/N=C(/N=Nc2nn[nH]n2)c2ccccc2)cc1 | 68.3 |
| O=C(O)c1ccc(NS(=O)(=O)c2ccc3c(c2)C2C=CCC2C(c2ccccc2F)N3)cc1 (configuration not stated) | 50.9 |
| CCOc1cc(/C=C2\C(=N)N3N=C(S(C)(=O)=O)SC3=NC2=O)ccc1OCCOc1cccc(OC)c1 | 75.7 |

| SMILES | inhibition [%] |
| --- | --- |
| O=C(O)c1cccc2c(-c3ccccc3)c(-c3ccccc3)[nH]c12 | 60.5 |
| CCc1nnc(NS(=O)(=O)c2ccc(NC(=S)NC(=O)/C=C/c3ccc(C(C)C)cc3)cc2)s1 | 81.7 |
| O=C(O)CN1C(=O)/C(=C\c2cc(Br)ccc2OCc2ccc(Cl)cc2Cl)SC1=S | 78.3 |
| COc1cc(C(=O)Nc2scc(-c3ccc(Br)cc3)c2C(=O)O)cc(OC)c1OC | 51.7 |
| CCCCCOc1ccc(C2C(C(=O)c3ccc(C)o3)=C(O)C(=O)N2c2cc(C)on2)cc1 (configuration not stated) | 62.6 |
| CCc1nnc(NS(=O)(=O)c2ccc(NC(=S)NC(=O)/C=C/c3cccs3)cc2)s1 | 64.7 |
| COc1ccccc1OCCOc1ccc(/C=C2\C(=N)N3N=C(S(C)(=O)=O)SC3=NC2=O)cc1 | 77.1 |
| Oc1c(Br)cc(Br)c(/C=N/n2c(-c3ccccc3)n[nH]c2=S)c1Br | 82.2 |
| O=C(COc1ccc2ccccc2c1)Nc1cccc(C(=O)Nc2ccccc2C(=O)O)c1 | 61.6 |
| CC(C)(C)OC(=O)N1CCC(c2cc(=O)n3[nH]cc(C(=O)Nc4ccc(F)c(Cl)c4)c3n2)CC1 | 81.8 |
| O=C1NN(c2ccccc2)C(=O)/C1=C\c1cccc(OC(=O)c2cccs2)c1 | 55.2 |
| O=C(COc1ccc(Cl)cc1Cl)Nc1ccc(C(=O)Nc2ccccc2C(=O)O)cc1 | 64.4 |
| O=C(O)CSc1cc(C(=O)c2cc(F)ccc2O)cn2c(=O)c3c(-c4ccccc4)csc3nc12 | 75.6 |
| O=[N+]([O-])c1cc(Cl)cc(/C=N/NC(=S)Nc2ccc(S(=O)(=O)N3CCOCC3)cc2)c1O | 59.6 |
| Cc1c2c(=O)n(-c3nc4ccccc4s3)nc-2cc(O)n1Cc1ccccc1 | 56.1 |
| COc1cc(/C=C2\C(=N)N3N=C(S(C)(=O)=O)SC3=NC2=O)ccc1OC(=O)c1ccco1 | 51.2 |
| COc1ccc2c(c1)cc(C(=O)N/N=C/c1c(O)c(C(=O)O)cc3ccccc13)n2C | 95.1 |
| O=C1N=c2ccc(Br)cc2=C1c1sc(=S)n(NS(=O)(=O)c2ccccc2)c1O | 50.3 |
| CCS(=O)(=O)C1=NSC2=NC(=O)/C(=C\c3cc(C)n(-c4cccc(OC)c4)c3C)C(=N)N21 | 72.4 |
| COc1ccccc1NS(=O)(=O)c1cccc(-n2c(O)c(C=Nc3ccccc3C(=O)O)c3ccccc3c2=O)c1 | 65.5 |
| O=C(O)CN1C(=O)/C(=C\c2cc(Br)ccc2OCc2ccc([N+](=O)[O-])cc2)SC1=S | 66.6 |
| CCOc1cc(/C=N/N=C2/NC(=O)C(CC(=O)O)S2)ccc1OCc1ccc(Cl)cc1 (configuration not stated) | 58.7 |

| SMILES | inhibition [%] |
| --- | --- |
| O=C(COc1cccc2ccccc12)Nc1ccc(Cl)cc1C(=O)O | 55 |
| O=C(NC(=S)Nc1ccccc1C(=O)O)c1ccc(-c2ccc(Br)cc2)o1 | 56.1 |
| O=C(NN1C(=O)/C(=C/c2ccc(O)c([N+](=O)[O-])c2)SC1=S)c1ccccc1Cl | 65 |
| Oc1c(Cl)cc(Cl)cc1Sc1cc(Cl)cc(Cl)c1O | 90 |
| O=c1[nH]c(=S)[nH]c2c1C(c1ccc(Br)cc1)c1c([nH]c(=S)[nH]c1=O)O2 | 74.8 |
| CC(C)NC(=O)c1sc(=S)n2c1[nH]c(=O)c1ccc(C(=O)NCCc3ccc(Cl)cc3)cc12 | 86.3 |
| O=C(O)/C(CC(=O)c1ccc(Cl)cc1)=N/Nc1ccc([N+](=O)[O-])cc1[N+](=O)[O-] | 52.2 |
| COc1ccc(/C=C2/SC(=O)N(CCCCCC(=O)Nc3ccccc3C(=O)O)C2=S)cc1 | 72.1 |
| COc1ccc(C(=O)Oc2ccc(/C=N/Nc3ccc(Cl)c(C(=O)O)c3)cc2OC)cc1 | 72.3 |
| CC(C)COc1ccc(-c2nn(-c3ccccc3)cc2/C=C2/SC(=S)N(CC(=O)O)C2=O)cc1 | 89.8 |
| O=C(NCc1ccccc1)c1ccc2c(=O)[nH]c3c(C(=O)NCC4CCCO4)sc(=S)n3c2c1 (configuration not stated) | 54.5 |
| Cc1cccc(OCC(=O)Nc2ccc(C(=O)Nc3ccccc3C(=O)O)cc2)c1C | 50.4 |
| Cc1cccc(C)c1-n1cccc1/C=C1\SC(=S)N(c2cccc(C(=O)O)c2)C1=O | 63.2 |
| Cc1sc(-n2c(C)cc(/C=C3\SC(=S)NC3=O)c2C)c(C#N)c1C | 64.6 |
| O=C(O)c1ccc(Nc2nc(-c3cc4ccccc4oc3=O)cs2)cc1O | 80.9 |
| Cc1ccccc1C(=O)Nc1cccc(C(=O)N/N=C/c2cc(Cl)cc([N+](=O)[O-])c2O)c1 | 50.3 |
| Cc1c(Cl)cccc1NS(=O)(=O)c1ccc2c(c1)C1C=CCC1C(c1ccc(C(=O)O)cc1)N2 (configuration not stated) | 80 |
| O=C(O)c1ccc(N/N=C/c2ccc(-c3cccc(Cl)c3)o2)cc1 | 56.2 |
| COc1cccc(-c2nc(SCC(=O)Nc3nc(-c4ccccc4)c(C)s3)[nH]c(=O)c2C#N)c1 | 80.7 |
| O=C1NN(c2ccc(Cl)c(Cl)c2)C(=O)/C1=C/c1cccc(OC(=O)c2cccs2)c1 | 84.4 |
| O=C(O)c1ccc(N2C(=O)/C(=C/c3ccc(-c4ccc([N+](=O)[O-])cc4)o3)C=C2c2ccccc2)cc1 | 76.5 |
| CC(/C=C1\SC(=S)N(CCCC(=O)Nc2ccc(C(=O)O)cc2)C1=O)=C\c1ccccc1 | 61.7 |

| SMILES | inhibition [%] |
| --- | --- |
| COc1ccc(NC(=O)c2c[nH]n3c(=O)cc(C4CCN(C(=O)OC(C)(C)C)CC4)nc23)cc1Cl | 76.4 |
| CCC(C)(C)C1CCc2c(sc(NC(=O)c3ccccc3C(=O)O)c2C#N)C1 (configuration not stated) | 63.9 |
| O=C(O)C1Nc2c(O)cccc2C2C=CCC12 (configuration not stated) | 77.2 |
| CCCOc1cccc(C2C(C(=O)c3cc4ccccc4o3)=C(O)C(=O)N2c2cc(C)on2)c1 (configuration not stated) | 53 |
| C=CC#CC[N+]1(CC#Cc2ccccc2)CCOCC1 | 82.5 |
| CC1(C)CC(=O)C2=C(C1)c1c(ccc3ccccc13)NC2c1cc([N+](=O)[O-])cc([N+](=O)[O-])c1O (configuration not stated) | 73.2 |
| O=C(O)CCN1C(=O)/C(=C\c2cccc(Oc3ccccc3)c2)SC1=S | 62.8 |
| COc1cc(/C=C2/C(=O)NN(c3ccc(Cl)cc3)C2=O)ccc1OC(=O)c1ccco1 | 50.4 |
| O=C(O)c1[nH]c2ccccc2c1C(c1cc(Cl)cc([N+](=O)[O-])c1O)c1c(C(=O)O)[nH]c2ccccc12 | 74.4 |
| CCOc1cc(Br)cc(C(c2c(C(=O)O)[nH]c3ccccc23)c2c(C(=O)O)[nH]c3ccccc23)c1O | 87.8 |
| O=C(CCN1C(=O)/C(=C/c2ccco2)SC1=S)Nc1ccc(C(=O)O)c(O)c1 | 51.2 |
| O=C(O)c1ccccc1NC(=O)c1ccccc1Nc1ccccc1 | 53.9 |
| CCOc1cc(/C=N/NC(=O)c2ccc(-c3csc(Nc4ccc(C)cc4)n3)cc2)ccc1OCC(=O)O | 87 |
| CS(=O)(=O)C1=NSC2=NC(=O)/C(=C\c3ccc(OS(=O)(=O)c4ccccc4)cc3)C(=N)N21 | 71.1 |
| CCCCCC#CCC#CCC#CCC#CCCCC(=O)O | 71.5 |
| COc1ccc(C(=O)/C=C/c2ccc(OCc3ccccc3)cc2)cc1CSCC(=O)O | 69.2 |
| O=C(O)COc1ccc(Br)cc1C(c1c(C(=O)O)[nH]c2ccccc12)c1c(C(=O)O)[nH]c2ccccc12 | 81 |
| O=C(O)c1ccc(-c2ccc(/C=c3/sc4nc5ccccc5n4c3=O)o2)cc1Cl | 100 |
| CCCCn1c(O)c(/C=C2\C=Nc3ccccc32)c(=O)[nH]c1=O | 118 |
| Cc1cn2c(N)c(C=C3C=C(Cl)C(=O)C(Cl)=C3)c(=O)nc2s1 | 66.6 |
| CCOc1ccc(NC(=NCc2ccc3c(c2)OCO3)SC2CC(=O)N(c3ccc(C(=O)O)cc3)C2=O)cc1 (configuration not stated) | 55.7 |
